Molecules are shown by their SMILES. The full ranking holds about 110,000 compounds; the median of “z-score” is about -0.1, and the highest 2% start at about 2. Some of the results follow. Active and inactive are the calls of the source.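 Rule for the calls: active = z-score in the third read window above 3 or below -3; inactive = the rest.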

The test deals with Metabotropic glutamate receptor 8 (Rattus norvegicus) (UniProt P70579). As to the kind of experiment: rat mGluR8 modulators via GIRK flux, primary screen, cell-based, thallium flux, HTS (AID 488969). Conditions: HEK293 rat mGluR8, GIRK (G protein-gated inwardly rectifying potassium channel) thallium flux, FluoZin2; at 10 µM; stronger effect = higher value; submaximal glutamate (EC20) added with thallium.
Chain of UniProt P70579 (P70579 whole entry, looked up): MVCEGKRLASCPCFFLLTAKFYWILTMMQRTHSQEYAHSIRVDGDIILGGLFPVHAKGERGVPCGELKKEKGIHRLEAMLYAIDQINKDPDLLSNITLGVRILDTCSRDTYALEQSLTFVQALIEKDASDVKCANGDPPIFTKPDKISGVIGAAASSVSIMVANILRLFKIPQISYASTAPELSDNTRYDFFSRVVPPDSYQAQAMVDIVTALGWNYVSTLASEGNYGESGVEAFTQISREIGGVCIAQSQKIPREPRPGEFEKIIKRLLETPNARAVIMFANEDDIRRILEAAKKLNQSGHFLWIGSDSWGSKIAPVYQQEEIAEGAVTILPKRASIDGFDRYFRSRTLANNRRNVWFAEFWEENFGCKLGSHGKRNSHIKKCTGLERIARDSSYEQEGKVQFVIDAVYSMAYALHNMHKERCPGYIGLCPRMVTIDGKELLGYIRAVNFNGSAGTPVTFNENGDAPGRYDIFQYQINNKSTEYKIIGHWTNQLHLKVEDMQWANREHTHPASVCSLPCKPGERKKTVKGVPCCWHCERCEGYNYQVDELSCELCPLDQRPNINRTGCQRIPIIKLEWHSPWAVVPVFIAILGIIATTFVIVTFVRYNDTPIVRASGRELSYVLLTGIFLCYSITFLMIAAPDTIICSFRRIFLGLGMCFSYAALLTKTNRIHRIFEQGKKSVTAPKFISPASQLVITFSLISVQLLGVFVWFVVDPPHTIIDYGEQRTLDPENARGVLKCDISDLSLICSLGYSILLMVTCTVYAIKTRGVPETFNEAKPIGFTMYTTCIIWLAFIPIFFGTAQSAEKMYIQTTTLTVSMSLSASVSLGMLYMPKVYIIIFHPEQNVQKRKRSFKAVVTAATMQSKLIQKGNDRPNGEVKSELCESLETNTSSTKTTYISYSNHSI
In turn, `O=C(CSc1nnc(-c2c[nH]c3ccccc23)o1)c1ccc(-c2ccccc2)cc1` registered a z-score of -0.253.

In turn, `Cc1cc(=O)[nH]c(/N=C(/NC(=O)c2ccccc2)Nc2ccc3c(c2)OCCO3)n1` gave a z-score of 0.312.

In the case of `COc1ccccc1N1CCN(C(=O)c2cc3sccc3n2C)CC1`, the z-score is -0.963.

As to `CCOCCCN1CC(C(=O)NCCc2ccc(C)cc2)CC1=O` (configuration not stated), the z-score was -0.0509.

`COc1ccc2nc(NC(=O)CSc3nnc4n3C(C)(C)Cc3ccccc3-4)sc2c1` had a z-score of -0.0177.

In turn, `Brc1ccccc1OCCCN1CCOCC1` returned a z-score of -0.502.

On to `CC1=NN(C(=O)c2ccc(Cn3nc(C)c([N+](=O)[O-])c3C)cc2)C(O)(C(F)(F)F)C1` (configuration not stated), for which the z-score is -0.0799.

`Cc1nc2ccccc2nc1SCC(=O)c1ccccc1` registered a z-score of -0.178.

Consider `CSc1ncccc1C(=O)Nc1nc2c(C)cccc2s1`, for which the z-score was found to be 0.518.

Turning to `O=S(=O)(NCc1ccco1)c1ccc2c(c1)Cc1ccccc1-2`, the z-score stood at 1.46.

In turn, `CCCCOc1ccc(-c2nc(=S)[nH][nH]2)cc1` displayed a z-score of 0.294.

In the case of `COc1cc(-c2[nH]nc3c2C(c2ccoc2)C(C#N)=C(N)O3)cc(OC)c1OC` (configuration not stated), the z-score was -0.355.

Regarding `CCN1CCN(CCCCOc2ccccc2F)CC1`, the z-score turned out to be 0.0641.

`CCCN(CCC)CCNC(=O)C1CC(=O)N(c2ccc(OC)cc2)C1c1ccc(OC)cc1` (configuration not stated) had a z-score of -0.547.

In turn, `Cc1cc(-c2ccccc2)[nH]c(=O)c1S(=O)(=O)c1ccccc1` gave a z-score of -0.0134.

For `CCCC(=O)N1CCN(c2ccc(NC(=O)c3sc4ccccc4c3Cl)cc2)CC1`, the z-score is -0.318.

Take `COc1ccc(C(c2nnnn2CC2CCCO2)N2CCC(C(N)=O)CC2)cc1` (configuration not stated): the z-score stood at 0.0457.

`Cc1c(Br)c([N+](=O)[O-])nn1CC(=O)N1CCc2ccccc2C1` yielded a z-score of 0.185.

Turning to `CCc1nc(SCc2nc3ccccc3[nH]2)c2oc3ccccc3c2n1`, the z-score was -0.749.

In turn, `CC(c1nnc(Sc2nnnn2-c2ccccc2)n1-c1ccc(F)cc1)N(C)C` (configuration not stated) showed a z-score of -0.321.

For the compound `O=C(CCc1ccccc1)N1CCN(c2ccc(Cl)cc2)CC1`, the z-score is 0.502.

`O=C(Cn1c(C(F)(F)F)nc2ccccc21)c1ccc(F)cc1` gave a z-score of -0.0983.

`CN1CCN(CCC(=O)Nc2ccccc2Cl)CC1` gave a z-score of -0.25.

`O=C(Nc1ccc2ccccc2c1)c1cn(-c2ccccc2)nc1-c1cccs1` registered a z-score of -0.0665.

`Cn1cccc1CC(=O)NNC(=O)Nc1cccc(Cl)c1` came in with a z-score of 0.0701.

As for `O=C(Nc1nccs1)c1cc(Cl)ccc1[N+](=O)[O-]`, the z-score was -0.122.

Consider `O=C(Cn1nnc2ccccc2c1=O)Nc1cc(C(F)(F)F)ccc1N1CCOCC1`, for which the z-score was 0.203.

In turn, `O=C(N/N=C/C(Br)=C\c1ccccc1)c1n[nH]c2c1CCC2` had a z-score of 0.919.

`Cc1ccccc1-n1c(C)cc(/C=N/NC(=O)c2ccncc2)c1C` registered a z-score of -0.537.

In the case of `O=C1c2ccccc2C(=O)N1CCCCN(C(=O)c1ccco1)c1ccc(Cl)cc1`, the z-score stood at 0.221.

In turn, `CCCCCOc1ccc(C2C(C(C)=O)=C(C)Nc3ncnn32)cc1OC` (configuration not stated) returned a z-score of 0.462.

Turning to `O=C(CCSCc1cccc(Cl)c1)NCCc1ccccc1`, the z-score worked out at 0.461.

Compound `COc1ccc(Cl)cc1NC(=O)COC(=O)CNC(=O)c1ccc([N+](=O)[O-])c(C)c1` gave a z-score of -0.184.

`NC(=O)C1CCN(c2nc(C3CC3)nc3c2nnn3Cc2ccccc2Cl)CC1` came in with a z-score of 0.157.

As for `Cc1nn(-c2cc(N3CCOCC3)ccc2[N+](=O)[O-])c(=O)c2ccccc12`, the z-score was -0.115.

Consider `Cc1ccc(N(CC(=O)N/N=C/c2cc(C)n(-c3ccccc3C)c2C)S(C)(=O)=O)cc1`, for which the z-score is -0.0921.

As for `COc1ccc2[nH]c(N=Nc3ccccc3C)c(O)c2c1`, the z-score was determined as 0.373.

Turning to `COc1cc([N+](=O)[O-])ccc1-c1ccc(C(=O)Nc2ccc(NC(C)=O)cc2)o1`, the z-score is -0.195.

Regarding `Cc1cc(C)c(S(=O)(=O)N2CCC(C(N)=O)CC2)cc1C`, the z-score was determined as 0.82.

For the compound `COc1cc(NC(=S)N2CCN(Cc3ccccc3)CC2)cc(OC)c1`, the z-score was -0.424.

Turning to `COc1ccc(-c2csc(Cc3nnc4n3CCCCC4)n2)cc1OC`, the z-score was -0.391.

As for `O=C(Nc1ccc2nc3n(c(=O)c2c1)CCCCC3)c1ccccc1Cl`, the z-score was -0.529.

`O=c1c2cccc3c2c(nn1-c1ccccc1)-c1ccccc1-3` registered a z-score of -0.249.

The compound `CSc1ccccc1NC(=O)CN(C)S(=O)(=O)c1ccc(F)cc1` returned a z-score of -0.156.

Compound `CCC(=S)/C=C1\Sc2ccc3ccccc3c2N1CCCS(=O)(=O)O` returned a z-score of -0.78.

In the case of `CCOC(=O)N1CCN(Cc2cc(=O)oc3ccc4ccccc4c23)CC1`, the z-score is -0.627.

In turn, `C=CCN(c1ccccc1)S(=O)(=O)c1cccc(C(=O)O)c1` yielded a z-score of -0.576.

Compound `Cc1ccc(NC(=O)c2sc(Cl)nc2-c2ccccc2)cc1C` came in with a z-score of -0.118.

Take `CC(C)(C)C(=O)Nc1ccccc1C(=O)Nc1ccccn1`: the z-score is -0.101.

Consider `Cc1ccc(-c2cnc(SCC(=O)N3CCCc4ccccc43)n2C)cc1`, for which the z-score was -0.31.

For the compound `CCn1c(=O)cc(OCC(=O)N(C)c2ccccc2F)c2ccccc21`, the z-score amounted to 0.162.

`O=C(NC(C(=O)NCCN1CCOCC1)C12CC3CC(CC(C3)C1)C2)C1CCCCC1` (configuration not stated): the z-score was -0.279.

`CN1CCN(C(=S)Nc2ccccc2Cl)CC1` displayed a z-score of -0.357.

`Cc1ccc(NC(=O)Cn2cccc2)c(C)c1` had a z-score of -0.101.

Consider `Cc1ccc(/C=C/C(=O)N2CC(C)CC(C)C2)o1` (configuration not stated), for which the z-score was -0.269.

As to `COc1ccccc1N1CCN(S(=O)(=O)c2ccc(Br)s2)CC1`, the z-score was -0.245.

With `COc1ccc(/C=N/Nc2cc(=O)n(C)c(=O)n2C)cc1OC`, the z-score was -1.56.

Compound `Cc1[nH]nc(SCC(=O)N2CCCCC2)c1[N+](=O)[O-]` registered a z-score of -0.427.

`CC1C2CC(C(S(=O)(=O)N3CCOCC3)C2=O)C1(C)C` (configuration not stated) registered a z-score of 0.656.

In the case of `Cc1ccc(C(=O)Nc2cccc(C(=O)NCc3ccco3)c2)cc1`, the z-score was -0.23.

On to `Cc1nc(NC(=O)c2ccccc2)sc1-c1csc(N)n1`, for which the z-score is -0.623.

`COc1ccc(-c2coc3cc(OC)cc(O)c3c2=O)cc1` showed a z-score of 0.644.

`COc1ccc(C2/C(=C(/O)c3ccccc3)C(=O)C(=O)N2CO)cc1` (configuration not stated) yielded a z-score of 0.305.

Take `COc1ccc(NC(=S)NCCSc2ccc(Cl)cc2)c(OC)c1`: the z-score was -0.0802.

In the case of `Cc1ccc(-n2c(=S)[nH]c3c(oc4ccccc43)c2=O)cc1C`, the z-score came to 1.14.

The compound `O=C(COC(=O)CNC(=O)c1ccco1)Nc1ccc(Cl)cn1` returned a z-score of -0.0507.

Consider `O=C(Cn1nc([N+](=O)[O-])nc1Br)NC(c1ccccc1)c1ccccc1`, for which the z-score was -0.103.

`COc1ccc(CNC(=O)C(c2ccc(C)o2)N(C(=O)c2csnn2)c2ccc(C(C)C)cc2)cc1` (configuration not stated) had a z-score of -0.548.

`COc1ccc(NC(=O)C2CC(=O)OC23CCCCC3)cc1` (configuration not stated) registered a z-score of 1.22.

Regarding `Cc1ccccc1Nc1ncccc1C(=O)N1CCOCC1`, the z-score was -0.0556.

With `CCCN1C(=O)c2cc(C(=O)O)ccc2C1O` (configuration not stated), the z-score is 0.176.

In the case of `CCOC(=O)c1cc(NC(=O)Nc2nccs2)c(C)nc1C`, the z-score was -0.407.

`Cc1cc(Cl)c(S(=O)(=O)NC2CCCCC2)cc1OCC(=O)Nc1nncs1`: the z-score was -0.88.

Consider `CC(=C/c1ccccc1)/C=C1/SC(N2CCOCC2)=NC1=O`, for which the z-score is -0.529.

Compound `CCN(CC)CCNC(=O)Cc1nn(CC)c(=O)c2ccccc12` returned a z-score of -0.0929.

Regarding `O=C(NC(=S)Nc1ccc(S(=O)(=O)N2CCCC2)cc1)c1cccs1`, the z-score was 1.1.

As to `CCN(c1ccccc1)S(=O)(=O)c1cc(C(=O)Nc2cccc(Cl)c2)ccc1F`, the z-score is -0.0119.

`Cc1cc(C)cc(NCC(=O)Nc2c(C)cccc2C)c1`: the z-score was -0.341.

With `Cc1nc2cc(NC(=O)NCc3ccc4c(c3)OCO4)ccc2o1`, the z-score is -0.547.

As for `CCn1c(=NC(=O)CSCC(=O)Nc2nccs2)sc2ccccc21`, the z-score was -0.268.

`Clc1ccc(Cn2ncc3c(NCc4ccccc4)ncnc32)cc1` gave a z-score of -0.00966.

Compound `Cc1nc2ccccc2n1CC(=O)N1CC(=O)Nc2ccccc21` showed a z-score of -0.551.

`COc1ccccc1NC(=O)c1sc(NC(=O)c2ccco2)c(C#N)c1C` displayed a z-score of -0.103.

For `Cc1ccc2c(CSc3nc4ccccc4c(=O)n3CCCO)cc(=O)oc2c1C`, the z-score was 0.157.

On to `CCOc1ccc(C(C)=O)cc1CSc1nnc(-c2cccs2)n1CC1CCCO1` (configuration not stated), for which the z-score was found to be 0.216.

Turning to `CCc1ccccc1NS(=O)(=O)c1ccc(SC)cc1`, the z-score is -0.416.

In the case of `CC1CCN(c2ccc(C(=O)NCc3ccc4c(c3)OCO4)cc2[N+](=O)[O-])CC1`, the z-score was -0.76.

Take `C=C1c2cc(CC)ccc2NC(=O)N1c1ccc(C)cc1`: the z-score was -0.0751.

The compound `O=c1[nH]nc(CSCc2ccccc2Cl)[nH]1` registered a z-score of -1.05.

`CCCC(=O)Nc1ccc(-c2ccc(NC(=O)CCC)cc2)cc1` came in with a z-score of 1.49.

Compound `CCOC(=O)N1CCN(C(=O)Nc2ccc(Cl)cc2Cl)CC1` came in with a z-score of -0.0245.

In the case of `O=C(c1cccc(-n2cnnn2)c1)N1CC=C(c2ccccc2)CC1`, the z-score was determined as 0.39.

Compound `Cc1ccccc1OCCn1cnc2c(N)ncnc21` returned a z-score of -0.648.

The compound `CN(C)c1ccc(C2C3C(=O)NC(=O)C3ON2c2ccc(Cl)cc2)cc1` (configuration not stated) showed a z-score of 2.58.

`CN1C(=O)N(C)C2(c3ccccc3)NC(=O)NC12c1ccccc1` (configuration not stated) came in with a z-score of 0.541.

With `C=CCn1c(SCC(N)=O)nnc1-c1ccccc1O`, the z-score was -0.0316.

Compound `Cc1ccc(NC(NC(=O)c2cccnc2)C(Cl)(Cl)Cl)cc1` (configuration not stated) had a z-score of -1.99.

`C=C(C)CN=C1SC(C(=O)Nc2sc3c(c2C(=O)OC)CCC3)C(N)=C1C(N)=O` (configuration not stated) gave a z-score of 0.236.

In turn, `O=C(CSc1nnc(COc2ccc(Cl)cc2)o1)OC1CCCCC1` displayed a z-score of 0.412.

Take `O=C(C1=C(O)/C(=C/c2ccc(O)cc2)CCC1)C(F)(F)F`: the z-score amounted to 0.181.

On to `S=C(NCCN1CCOCC1)Nc1cccc2ccccc12`, for which the z-score was -0.0659.

In the case of `O=C(N/N=C/C=C/c1ccccc1)C1CC1c1ccccc1` (configuration not stated), the z-score came out at 0.201.

Compound `COc1ccc(NC(=O)c2ccccc2NC(=O)NC2CCCCC2)cc1` showed a z-score of -1.06.

On to `CCc1cc2c(=O)c(-c3ccc4c(c3)OCCO4)coc2cc1OS(C)(=O)=O`, for which the z-score worked out at 1.1.

The compound `CCOC(=O)c1ccc(-c2ccc(CO)o2)cc1` yielded a z-score of -0.45.

`O=C(CCc1ccccc1)NNC(=O)c1ccccc1Br`: the z-score is -0.00288.

With `COc1cccc(/C=C/C(=O)OCC(=O)Nc2cc(C(F)(F)F)ccc2Cl)c1`, the z-score was -0.177.

The compound `COCCn1c(SCC(=O)N2CCCC2)nnc1-c1ccoc1C` returned a z-score of 0.0693.

The compound `CCCCSc1ccc2nc(-c3ccc(C#N)cc3)cn2c1` registered a z-score of -0.0636.

As for `CCCOc1ccc(/C=N/NC(=O)C(=O)Nc2ccccn2)cc1`, the z-score was active: 3.92.

With `N#Cc1nc(-c2ccc(OCc3ccc(Cl)cc3)cc2)oc1NCCCn1ccnc1`, the z-score came to 0.281.

`Cc1cc(C)nc(SCc2ccc(C(=O)NNC(=O)Nc3cccc(Cl)c3)cc2)n1` showed a z-score of 0.418.
